# Data taken from the supplement of paper PMC11880418.
# Structures can show the parent of a compound that is named as a salt. The list shows a part of the results. The data scatter; read single values as rough.
# Tested on: T84
# Assay: ALDHbr (CSC) cell proportion score relative to DMSO vehicle (ratio to DMSO); breast (SUM159) / gastric (MKN45) / pancreatic (PANC1) / colon cancer lines; ALDHbr cells have high ALDH activity and are rich in cancer stem cells (CSC); higher = more CSC (ALDHbr) cells remaining
# Conditions: 10 µM; 72 h
# 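Note: High-content imaging of ALDEFLUOR-stained cells with Hoechst-labelled nuclei in 384-well plates, triplicate wells, scored as Z-score against 0.1% DMSO vehicle, negative meaning fewer ALDHbr cells.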
row,Structure (SMILES),ALDHbr
1,CC[C@H]1OC(=O)[C@H](C)[C@@H](O[C@H]2C[C@@](C)(OC)[C@@H](O)[C@H](C)O2)[C@H](C)[C@@H](O[C@@H]2O[C@H](C)C[C@H](N(C)C)[C@H]2O)[C@](C)(OC)C[C@@H](C)C(=O)[C@H](C)[C@@H](O)[C@]1(C)O [Clarithromycin],0.993
2,C#C[C@]1(O)CC[C@H]2[C@@H]3CCC4=Cc5oncc5C[C@]4(C)[C@H]3CC[C@@]21C [Danazol],0.852
3,CCOC(=O)[C@H](CCc1ccccc1)N[C@@H](C)C(=O)N1[C@H](C(=O)O)C[C@@H]2CCC[C@@H]21 [Ramipril],0.831
4,CCCCC(CC)CN1CN(CC(CC)CCCC)CC(C)(N)C1 (centres undefined) [Hexetidine],1.37
5,CCC(=O)O[C@]1(C(=O)CCl)[C@@H](C)C[C@H]2[C@@H]3CCC4=CC(=O)C=C[C@]4(C)[C@@]3(F)[C@@H](O)C[C@@]21C [Clobetasol propionate],0.763
6,CC(=O)O[C@H]1C[C@@]2(C)[C@@H](C[C@@H](O)[C@H]3[C@@]4(C)CC[C@@H](O)[C@@H](C)[C@@H]4CC[C@@]32C)/C1=C(\CCC=C(C)C)C(=O)O [Fusidic acid sodium salt],0.881
7,CNC[C@H](O)[C@@H](O)[C@H](O)[C@H](O)CO [Meglumine],1.14
8,CCN(CC)CCNC(C(=O)OCCC(C)C)c1ccccc1 (centres undefined) [Camylofine chlorhydrate],0.891
9,O=C1[C@H]2CCCC[C@H]2C(=O)N1CCCCN1CCN(c2nsc3ccccc23)CC1 [Perospirone],0.602
10,N=C(N)NC(=O)Cc1c(Cl)cccc1Cl [Guanfacine hydrochloride],1.14
11,CCc1cc(C(N)=S)ccn1 [Ethionamide],0.951
12,C[C@@H]1C[C@H]2[C@@H]3C[C@H](F)C4=CC(=O)C=C[C@]4(C)[C@@]3(F)[C@@H](O)C[C@]2(C)[C@@]1(O)C(=O)CO [Flumethasone],0.979
13,CC(CCc1ccccc1)NCC(O)c1ccc(O)c(C(N)=O)c1 (centres undefined) [Labetalol hydrochloride],0.83
14,CCn1cc(C(=O)O)c(=O)c2cnc(N3CCNCC3)nc21 [Pipemidic acid],1.02
15,Cc1noc(NS(=O)(=O)c2ccc(N)cc2)c1C [Sulfisoxazole],1
16,CC1CCc2c(N3CCC(O)CC3)c(F)cc3c(=O)c(C(=O)O)cn1c23 (centres undefined) [Nadifloxacin],0.952
17,CC(=O)OCC(=O)[C@@]12OC(C)(C)O[C@@H]1C[C@H]1[C@@H]3C[C@H](F)C4=CC(=O)C=C[C@]4(C)[C@@]3(F)[C@@H](O)C[C@@]12C [Fluocinonide],0.922
18,CCN[C@H]1CN(CCCOC)S(=O)(=O)c2sc(S(N)(=O)=O)cc21 [Brinzolamide],0.947
19,NC(=O)OCC(COC(N)=O)c1ccccc1 [Felbamate],1.04
20,CCCC(=O)Nc1ncnc2c1ncn2[C@@H]1O[C@@H]2COP(=O)(O)O[C@H]2[C@H]1OC(=O)CCC [Bucladesine sodium salt],0.998

row,Structure (SMILES),ALDHbr
1,C/C(=C\C(=O)OCCCCCCCCC(=O)O)C[C@@H]1OC[C@H](C[C@@H]2O[C@H]2[C@@H](C)[C@H](C)O)[C@@H](O)[C@H]1O [Mupirocin],0.818
2,CC#C[C@]1(O)CC[C@H]2[C@@H]3CCC4=CC(=O)CCC4=C3[C@@H](c3ccc(N(C)C)cc3)C[C@@]21C [Mifepristone],0.504
3,CC(C)NCC(O)c1ccc(NS(C)(=O)=O)cc1 (centres undefined) [Sotalol hydrochloride],0.836
4,C[C@@H]1CN(c2c(F)c(N)c3c(=O)c(C(=O)O)cn(C4CC4)c3c2F)C[C@H](C)N1 [Sparfloxacin],0.939
5,CN1CCC(=C2c3ccccc3CCc3sccc32)CC1 [Pizotifen malate],0.83
6,CC1=C(/C=C/C(C)=C/C=C/C(C)=C/C(=O)O)C(C)(C)CCC1 [Retinoic acid],0.589
7,C[C@H](CS)C(=O)N1CCC[C@H]1C(=O)O [Captopril],0.932
8,CC(C)COCC(CN(Cc1ccccc1)c1ccccc1)N1CCCC1 (centres undefined) [Bepridil hydrochloride],0.582
9,CCC1=C(C)CN(C(=O)NCCc2ccc(S(=O)(=O)NC(=O)N[C@H]3CC[C@H](C)CC3)cc2)C1=O [Glimepiride],0.938
10,O=C(O)COCCN1CCN(C(c2ccccc2)c2ccc(Cl)cc2)CC1 (centres undefined) [Cetirizine dihydrochloride],0.831
11,C[N+]1(C)CCC(OC(=O)C(O)(c2ccccc2)C2CCCC2)C1 (centres undefined) [Glycopyrrolate],0.895
12,CN1CCCN=C1/C=C/c1cccc(O)c1 [Oxantel pamoate],0.977
13,CCC1(c2ccccc2)C(=O)NCNC1=O [Primidone],1.09
14,N[C@H]1CONC1=O [(S)-(-)-Cycloserine],0.851
15,Nc1nc2c(ncn2COC(CO)CO)c(=O)[nH]1 [Ganciclovir],1.02
16,COc1cc(C(=O)OCCCN2CCCN(CCCOC(=O)c3cc(OC)c(OC)c(OC)c3)CC2)cc(OC)c1OC [Dilazep dihydrochloride],0.743
17,O=C1OCCN1/N=C/c1ccc([N+](=O)[O-])o1 [Furazolidone],0.301
18,Clc1cc(Cl)c(OCC#CI)cc1Cl [Haloprogin],0.777
19,CC[C@]12CCCN3CCc4c(n(c5ccccc45)[C@@](O)(C(=O)OC)C1)[C@@H]32 [Vincamine],0.925
